According to the supplement of paper PMC10600219:
Counter-ions that a name gives are not always drawn. The full ranking holds about 2,800 compounds; the median of “cell viability relative to vehicle” is about 1.1, and the lowest 2% start at about 0.19. This is one part of the list.

system: NCI-H2228 parental; test: cell viability relative to vehicle (fraction of vehicle); NCI-H2228 is an ALK-positive lung cancer line and DTP means drug-tolerant persister; higher = less growth inhibition; settings: 100 nM; treatment time 6 days
Outline: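 Values give cell viability as a fraction of vehicle-treated cells. Parental and drug-tolerant persister NCI-H2228 cells (persisters made with 1000 nM of a targeted drug for 13 days) were exposed in 384-well plates to the 3114-agent TargetMol anti-cancer compound library at 100 nM, with DMSO as vehicle. ATP was then read after 6 days by the CellTiter-Glo 3D Cell Viability Assay.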

Q: Which cell viability does the source give for `CCn1c(N)c(C(=O)NC)c(=O)c2ccc(C#CC(C)(O)COC)nc21` (centres undefined) here?
A: 1.03

Q: For `CCOC(=O)C1=C(C)NC(=S)NC1c1cccc(O)c1` (centres undefined) [Monastrol], which cell viability is on record?
A: 0.991

Q: With `CC[C@H]1OC(=O)[C@H](C)[C@@H](O[C@H]2C[C@@](C)(OC)[C@@H](O)[C@H](C)O2)[C@H](C)[C@@H](O[C@@H]2O[C@H](C)C[C@H](N(C)C)[C@H]2O)[C@](C)(O)C[C@@H](C)CN(C)[C@H](C)[C@@H](O)[C@]1(C)O` [Azithromycin dihydrate] as the compound, how does the cell viability read?
A: 1.37

Q: `OCCn1cc(-c2ccc3c(c2)CC/C3=N\O)c(-c2ccncc2)n1` was tested. Which cell viability did it give?
A: 1.2

Q: With `CN1CCc2nc(C(=O)N[C@@H]3C[C@@H](C(=O)N(C)C)CC[C@@H]3NC(=O)C(=O)Nc3ccc(Cl)cn3)sc2C1` [Edoxaban Tosylate Monohydrate] as the compound, how does the cell viability read?
A: 1.15

Q: Which cell viability does the source give for `CN[C@H]1CC[C@@H](c2ccc(Cl)c(Cl)c2)c2ccccc21` [Sertraline hydrochloride] here?
A: 1.18

Q: Which cell viability does the source give for `NC(=O)C1CCCc2c1[nH]c1ccc(Cl)cc21` (centres undefined) [Selisistat] here?
A: 1.07

Q: How did the cell viability turn out when `O=C(/C=C/c1ccc(O)c(O)c1)O[C@H](Cc1ccc(O)c(O)c1)C(=O)O` [Rosmarinic acid] was run?
A: 1.08

Q: How did the cell viability turn out when `CCS(=O)(=O)c1cccc(-c2cc(C(=O)NC3CCN(C)CC3)c(C)c3[nH]c4ncc(C)cc4c23)c1` was run?
A: 0.617

Q: Which cell viability does the source give for `C[C@H]1CC[C@@]2(OC1)O[C@H]1C[C@H]3[C@@H]4CC[C@@H]5C[C@@H](O)CC[C@]5(C)[C@H]4CC[C@]3(C)[C@H]1[C@@H]2C` [Sarsasapogenin] here?
A: 1.13

Q: Which cell viability does the source give for `C[C@]12CC[C@@H]3c4ccc(O)cc4C[C@@H](CCCCCCCCC[S+]([O-])CCCC(F)(F)C(F)(F)F)[C@H]3[C@@H]1CC[C@@H]2O` (some centres undefined) [Fulvestrant] here?
A: 1.2

Q: `COc1cc(CNC(=O)CCCC/C=C/C(C)C)ccc1O` [Capsaicin] was tested. Which cell viability did it give?
A: 1.07

Q: With `CO/N=C(\C(=O)N[C@@H]1C(=O)N2C(C(=O)O)=C(COC(C)=O)CS[C@H]12)c1csc(N)n1` [Cefotaxime sodium] as the compound, how does the cell viability read?
A: 0.888

Q: Which cell viability does the source give for `COc1ccc(-c2cc(=O)c3c(O)c(OC)c(O)cc3o2)cc1OC` [Eupatilin] here?
A: 1.13

Q: For `O=C(O)CC(C(=O)O)n1c(O)c(C2=c3cc(Br)ccc3=NC2=O)sc1=S` (centres undefined), which cell viability is on record?
A: 1.01

Q: How did the cell viability turn out when `CC1(C)CN(C(=O)c2ccc(-c3cccc4nc(NC(=O)C5CC5)nn34)cc2)C1` [Solcitinib] was run?
A: 1.11

Q: Which cell viability does the source give for `Clc1ccc2nsnc2c1NC1=NCCN1` [Tizanidine hydrochloride] here?
A: 0.991

Q: `Cc1cc(Nc2cc(N3CCN(C)CC3)nc(Sc3ccc(NC(=O)C4CC4)cc3)n2)n[nH]1` [Tozasertib] was tested. Which cell viability did it give?
A: 0.158

Q: For `CC(=O)Nc1nnc(S(N)(=O)=O)s1` [Acetazolamide], which cell viability is on record?
A: 1.12

Q: For `Nc1nc(OCc2cc(Br)cs2)c2[nH]cnc2n1` [Lomeguatrib], which cell viability is on record?
A: 0.971

Q: With `COc1c(Nc2ncc(Cl)c(N[C@H]3[C@@H](C(N)=O)[C@@H]4C=C[C@H]3C4)n2)ccc2c1CC[C@@H](N1CCOCC1)CC2` as the compound, how does the cell viability read?
A: 0.799

Q: For `N[C@H]1CC[C@H](N[C@@H]2C[C@H]2c2ccccc2)CC1`, which cell viability is on record?
A: 1.05

Q: For `Cc1cc(C(C)Nc2ccccc2)c2nc(N3CCOCC3)cc(=O)n2c1` (centres undefined), which cell viability is on record?
A: 0.993

Q: Which cell viability does the source give for `CCOC(=O)C1=C(N)Oc2ccc(Br)cc2C1C(C#N)C(=O)OCC` (centres undefined) here?
A: 1.13

Q: For `O=[N+]([O-])c1ccc(Nc2nc(N3CCOCC3)nc(N3CCOCC3)n2)cc1`, which cell viability is on record?
A: 1.14

Q: `O=C1O[C@H]([C@@H](O)CO)C([O-])=C1O.[Na+]` [Sodium ascorbate] was tested. Which cell viability did it give?
A: 1.02

Q: Which cell viability does the source give for `Cc1c(O)c(C)c2c(c1O)C(=O)C[C@@H](c1ccc(O)cc1)O2` [Farrerol] here?
A: 1

Q: With `CC(C)=CCC1=C(O)C(=O)c2ccccc2C1=O` [Lapachol] as the compound, how does the cell viability read?
A: 0.936

Q: How did the cell viability turn out when `Nc1nc(=O)n([C@@H]2CS[C@H](CO)O2)cc1F` [Emtricitabine] was run?
A: 1.13

Q: For `COc1ccc(Cl)cc1C(=O)NCCc1ccc(S(=O)(=O)NC(=O)NC2CCCCC2)cc1` [Glyburide], which cell viability is on record?
A: 1.08

Q: For `CC#C[C@]1(O)CC[C@H]2[C@@H]3CCC4=CC(=O)CCC4=C3[C@@H](c3ccc(N(C)C)cc3)C[C@@]21C` [Mifepristone], which cell viability is on record?
A: 1.08

Q: For `COC(=O)N[C@@H](C)CNc1nccc(-c2cn(C(C)C)nc2-c2cc(Cl)cc(NS(C)(=O)=O)c2F)n1` [Encorafenib], which cell viability is on record?
A: 1.13

Q: For `CC[C@@H]1C(=O)N(C)c2cnc(Nc3ccc(C(=O)N[C@H]4CC[C@H](N5CCN(CC6CC6)CC5)CC4)cc3OC)nc2N1C(C)C` [Volasertib], which cell viability is on record?
A: 0.192

Q: For `Cc1nc(C(=O)NCC(=O)O)c(O)c2ccc(Oc3ccccc3)cc12` [Roxadustat], which cell viability is on record?
A: 0.938

Q: How did the cell viability turn out when `COc1cccc2c1C(=O)c1c(O)c3c(c(O)c1C2=O)C[C@@](O)(C(=O)CO)C[C@@H]3O[C@H]1C[C@H](N)[C@H](O[C@@H]2CCCCO2)[C@H](C)O1` [Pirarubicin] was run?
A: 0.22

Q: `COc1cc2c(NC3CCN(C(C)C)CC3)nc(N3CCC(F)(F)CC3)nc2cc1OCCCN1CCCC1` was tested. Which cell viability did it give?
A: 1.06

Q: Which cell viability does the source give for `CCCCCCNC(=O)n1cc(F)c(=O)[nH]c1=O` [Carmofur] here?
A: 0.957

Q: For `CC(O)c1cc(C(=O)N[C@@H](C)Cn2ccc(-c3ccc(C#N)c(Cl)c3)n2)n[nH]1` (some centres undefined) [Darolutamide], which cell viability is on record?
A: 1.2

Q: With `CCC[C@@H]1C[C@@H](C(=O)N[C@@H]([C@H]2O[C@H](SC)[C@H](OP(=O)(O)O)[C@@H](O)[C@H]2O)[C@H](C)Cl)N(C)C1` [Clindamycin phosphate] as the compound, how does the cell viability read?
A: 1.01

Q: How did the cell viability turn out when `CC(C)[C@H](N)C(=O)OCCOCn1cnc2c(=O)nc(N)[nH]c21` [Valacyclovir hydrochloride] was run?
A: 1.08

Q: Which cell viability does the source give for `O=C(Nc1cnn2ccc(N3CCC[C@@H]3c3cc(F)ccc3F)nc12)N1CC[C@H](O)C1` [Larotrectinib sulfate] here?
A: 0.9

Q: How did the cell viability turn out when `CN1CCN2c3ncccc3Cc3ccccc3C2C1` (centres undefined) [Mirtazapine] was run?
A: 1.05

Q: Which cell viability does the source give for `CC(C)(O)[C@@H]1CC[C@](C)([C@H]2[C@@H](O)C[C@@]3(C)[C@@H]4C[C@H](O)[C@H]5C(C)(C)[C@@H](O)CC[C@@]56C[C@@]46CC[C@]23C)O1` [Cycloastragenol] here?
A: 1.12

Q: How did the cell viability turn out when `Cc1cc(C)nc(NS(=O)(=O)c2ccc(N)cc2)n1` [Sulfamethazine sodium salt] was run?
A: 1.04
